In PubChem BioAssay (Tox21):
Several values for one entry are separate records, joined by “and”; a condition that tells them apart may be missing. Equal entries are not always repeated. Inconclusive means that the source gave no clear call. Such entries were picked first, then a sample of the others. For some assays here: Potencies beside an inconclusive call are fits to weak or partial responses and may not hold up. A structure can be active in one record and inactive in another. Activity calls are given as the source filed them. Calls come from the whole dose curve; as a rule, active = well fitted curve in the direction sought with a large enough effect in the repeat runs; inconclusive = weak or mixed curves; inactive = no such curve, though single readings can be large; an effect the other way counts as inactive or inconclusive.

Legend:
[1] = qHTS RealTime-Glo MT Cell Viability Assay in HEK293 cells - 32 hour (AID 1224868); details: RealTime-Glo luminescence; series mostly up to 76.8 µM; note: nearly all actives have a fitted effect of over 50% in size; note: potency is the fitted concentration of half-maximal effect
Outline: (§1)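 Viability tracked continuously by luminescence as live cells reduce a prosubstrate for NanoLuc; HEK293 cells preincubated 5 h, compound-treated at 37 C, and read at 0, 8, 16, 24, 32 and 40 h.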

[2] = qHTS RealTime-Glo MT Cell Viability Assay in HEK293 cells - 16 hour (AID 1224872); details: RealTime-Glo luminescence; series mostly up to 76.8 µM; note: potency is the fitted concentration of half-maximal effect; nearly all actives have a fitted effect of over 50% in size
Outline: as §1

[3] = qHTS RealTime-Glo MT Cell Viability Assay in HEK293 cells - 40 hour (AID 1224874); details: RealTime-Glo luminescence; max response: stronger effect = lower value; note: potency is the fitted concentration of half-maximal effect; nearly all actives have a fitted effect of over 50% in size
Outline: (§2)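 600 HEK293 cells per well, dispensed already mixed with RealTime-Glo MT reagents. Compound dosing came 5 h later. The same wells were read for luminescence at 0, 8, 16, 24, 32 and 40 h of exposure at 37 C.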

[4] = qHTS RealTime-Glo MT Cell Viability Assay in HEK293 cells - 0 hour (AID 1224880); details: RealTime-Glo luminescence; series mostly up to 76.8 µM; note: potency is the fitted concentration of half-maximal effect; nearly all actives have a fitted effect of over 45% in size
Outline: as §2

[5] = A CellTox Green Cytotoxicity Assay to monitor cytotoxicity in HEK293 cells - 40 hour (AID 1224871); details: CellTox Green fluorescence; series mostly up to 76.8 µM; note: nearly all actives have a fitted effect of over 45% in size; note: potency is the fitted concentration of half-maximal effect
Outline: (§3)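 Dead-cell fluorescence measured kinetically: asymmetric cyanine dye, HEK293, 600 cells/well, 5 h settle, 23 nL cpd/DMSO, 37 C, reads 0–40 h every 8 h.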

[6] = A CellTox Green Cytotoxicity Assay to monitor cytotoxicity in HepG2 cells - 24 hour (AID 1224878); details: CellTox Green fluorescence; series mostly up to 76.8 µM; note: nearly all actives have a fitted effect of over 45% in size; note: potency is the fitted concentration of half-maximal effect
Outline: (§4)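 First, HepG2 cells (600/well) mixed with reagent were plated; second, after 5 h at 37 C they received compounds via pintool; third, fluorescence was measured at 0 h through 40 h at 8 h intervals.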

[7] = A CellTox Green Cytotoxicity Assay to monitor cytotoxicity in HEK293 cells - 32 hour (AID 1224881); details: CellTox Green fluorescence; series mostly up to 76.8 µM; note: nearly all actives have a fitted effect of over 40% in size; note: potency is the fitted concentration of half-maximal effect
Outline: as §3

[8] = A CellTox Green Cytotoxicity Assay to monitor cytotoxicity in HepG2 cells - 40 hour (AID 1224879); details: CellTox Green fluorescence; series mostly up to 76.8 µM; note: nearly all actives have a fitted effect of over 40% in size; note: potency is the fitted concentration of half-maximal effect
Outline: as §4

[9] = A CellTox Green Cytotoxicity Assay to monitor cytotoxicity in HEK293 cells - 24 hour (AID 1224875); details: CellTox Green fluorescence; series mostly up to 76.8 µM; note: potency is the fitted concentration of half-maximal effect; nearly all actives have a fitted effect of over 45% in size
Outline: as §3

[10] = qHTS RealTime-Glo MT Cell Viability Assay in HepG2 cells - 8 hour (AID 1224873); details: RealTime-Glo luminescence; series mostly up to 76.8 µM; note: nearly all actives have a fitted effect of over 55% in size
Outline: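 HepG2 cells mixed with RealTime-Glo MT reagents (NanoLuc plus cell-permeant prosubstrate) were seeded at 600 cells/well, incubated 5 h at 37 C/5% CO2, then pinned with compounds in DMSO; nonlytic luminescence tracked viability during 40 h treatment.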
Tags give direction and shape of the fitted curve.

For `O=C1CCc2cc(OCCCCc3nnnn3C3CCCCC3)ccc2N1`, the Potency [1] was inconclusive: 21.3 µM [cytotoxic, partial curve] and the Potency [2] was inconclusive: 21.3 µM [cytotoxic, single point].
With `CCCCCCCCCCCCCBr` the Potency [1] was inconclusive: 54.8 µM [cytotoxic, single point], the Potency [2] was inconclusive: 54.8 µM [cytotoxic, single point] and the Potency [3] was inconclusive: 54.8 µM [cytotoxic, single point]. The Potency [4] was inconclusive: 54.8 µM [falling, single point].
For `CC[C@H]1OC(=O)[C@H](C)[C@@H](O[C@H]2C[C@@](C)(OC)[C@@H](O)[C@H](C)O2)[C@H](C)[C@@H](O[C@@H]2O[C@H](C)C[C@H](N(C)C)[C@H]2O)[C@](C)(O)C[C@@H](C)CN(C)[C@H](C)[C@@H](O)[C@]1(C)O`, the Potency [1] was inconclusive: 40.9 µM [cytotoxic, partial curve, poor fit], the Potency [5] was “inactive” and the Potency [3] was inconclusive: 40.9 µM [cytotoxic, single point].
With `CCOC(=O)CC(O)(CC(=O)OCC)C(=O)OCC` the Potency [1] was inconclusive: 54.9 µM [rising, partial curve, poor fit], the Potency [5] was “inactive” and the Potency [3] was inconclusive: 54.9 µM [rising, partial curve, poor fit]. For the same molecule, the Potency [6] was “inactive”.
In the case of `NC(=O)Nc1ccc(Cl)c(Cl)c1`, the Potency [1] was inconclusive: 48.9 µM [cytotoxic, partial curve, poor fit], the Potency [5] was “inactive” and the Potency [3] was inconclusive: 43.5 µM [cytotoxic, partial curve, poor fit]. For the same molecule, the Potency [7] was “inactive”.
In the case of `Nc1ccc2c(O)cc(S(=O)(=O)O)cc2c1`, the Potency [1] was active: 6.17 µM and inconclusive: 4.36 µM [cytotoxic, full curve], the Potency [2] was inconclusive: 11 µM [cytotoxic, full curve] and the Potency [3] was active: 6.17 µM and inconclusive: 3.89 µM [cytotoxic, full curve]. For the same molecule, the Potency [8] was “inactive”.
In the case of `CN(CCOc1ccc(CC2SC(=O)NC2=O)cc1)c1ccccn1` (stereo not given), the Potency [1] was inconclusive: 43.4 µM [cytotoxic, partial curve], the Potency [2] was inconclusive: 21.7 µM [cytotoxic, partial curve] and the Potency [3] was inconclusive: 48.7 µM [cytotoxic, partial curve]. The Potency [4] was inconclusive: 15.4 µM [falling, partial curve].
With `COc1ccc2nc(N)sc2c1` the Potency [1] was active: 2.19 µM, the Potency [2] was inconclusive: 4.9 µM [cytotoxic, full curve] and the Potency [3] was inconclusive: 2.19 µM [cytotoxic, full curve].
In the case of `CC(C)COC(=O)c1ccc(O)cc1`, the Potency [1] was inconclusive: 54.9 µM [cytotoxic, single point], the Potency [5] was inconclusive: 54.9 µM [activator, single point] and the Potency [2] was inconclusive: 61.6 µM [cytotoxic, single point]. For the same molecule, the Potency [9] was inconclusive: 54.9 µM [activator, single point], the Potency [6] was inconclusive: 54.9 µM [activator, single point] and the Potency [8] was inconclusive: 54.9 µM [activator, single point]. The Potency [7] was inconclusive: 48.9 µM [activator, single point].
In the case of `S=C([S-])NCCNC(=S)[S-].S=C([S-])NCCNC(=S)[S-].[Mn+2].[Zn+2]`, the Potency [1] was inconclusive: 23.9 µM [rising, partial curve], the Potency [2] was inconclusive: 23.9 µM [rising, partial curve] and the Potency [3] was inconclusive: 23.9 µM [rising, partial curve].
In the case of `Oc1ccc2ccccc2c1`, the Potency [1] was “inactive”, the Potency [5] was “inactive” and the Potency [6] was inconclusive: 21.9 µM [activator, single point]. For the same molecule, the Potency [8] was inconclusive: 19.5 µM [activator, single point].
With `CCCCCCCC(=O)OCCCCCC` the Potency [1] was active: 3.47 µM, the Potency [2] was inconclusive: 4.9 µM [cytotoxic, full curve] and the Potency [10] was “inactive”.
With `O=c1[nH]cc(F)c(=O)[nH]1` the Potency [1] was inconclusive: 57 µM [cytotoxic, single point], the Potency [2] was inconclusive: 7.18 µM [rising, full curve, poor fit] and the Potency [3] was inconclusive: 57 µM [cytotoxic, single point]. For the same molecule, the Potency [9] was inconclusive: 40.4 µM [activator, partial curve, poor fit] and the Potency [6] was inconclusive: 57 µM [activator, single point].
